Assay results published in US5538946A, “Hirudin derivatives with delayed action” (Hoechst Aktiengesellschaft, priority 1988, dated 1996).

How the values were obtained:
[1] = hirudin, literature value (Markwardt et al. Pharmazie 43 (1988) 202); cited from earlier work
[2] = i.v. administration to Wistar rats, plasma concentration read off by thrombin inhibition (coagulation time) assay; format: in vivo; details: comparison experiment
Experimental: Female and male Wistar rats with a body weight of about 300 g are anesthetized with ethylurethane (1.5 g/kg i.p.). 1000 AT-U/kg of a hirudin derivative or authentic `Leu-Thr-hirudin`, which has been dissolved in physiological saline, are administered i.v. to the rats. A catheter is implanted in the carotid of the animals for blood sampling. Blood is taken from the animals and treated with citrate for the determination of anti-thrombin activity. 0.1 ml of the blood treated in this way is mixed with 0.2 ml of Tris/HCl buffer (0.1 mol/1; pH 7.4) and preincubated at 37° C. After addition of 0.1 ml of a thrombin solution (10 NIH-U/ml) the coagulation time is determined using a Schnitger and Gross coagulometer. In parallel with the experiment a calibration plot is constructed using reference plasma, from which the particular plasma hirudin or plasma hirudin derivative concentration is read off.
To reduce the Schiff's base which has formed, 75 mg of NaBH4 are added to the 75 ml of incubated solution, and the solution is stirred at 4° C. for 40 minutes and subsequently dialyzed against water at 4° C. for 24 hours (membrane: Servapor Dialysis Tubing; diameter 10mm, from Serra Feinbiochemica GmbH Heidelberg). This is followed by gel filtration on ®Sephadex G-25 and lyophilization. […] This entails measurement of the inhibition of the thrombin-catalyzed cleavage of chromozyme TH. […]

B1: hirudin: isohirudin ('Leu-Thr-hirudin') described in German Patent Application 3,805,5406, synthesized in yeast cells; comparison substance (protein, UniProt P01050 1-65, looked up, variant V1L V2T)
Hirudin variant-1: LTYTDCTESGQNLCLCEGSNVCGQGNKCILGSDGEKNQCVTGEGTPKPQSHNDGDFEEIPEEYLQ
modifications: recombinant, yeast-expressed
notes: comparison substance
For B1, the half-life [1] is listed as 1 to 2 h and the “dose needed for a detectable plasma concentration after 1 hour, times higher than dextran-hirudin” value [2] is listed as “approximately 10 times”.
